Experimental data from PubChem BioAssay AID504832 (National Center for Advancing Translational Sciences (NCATS), 2011).
In all, about 310,000 compounds went through this assay and about 18,000 (5.8%) were called active. The shares of active, inactive and inconclusive entries below differ from those in the screen. The call rests on the fitted dose curve; in most records, active means well fitted inhibition curve with a large enough effect; inconclusive means small, poorly fitted or top-dose-only effect, or another doubt; inactive means no such curve, though single readings can be large or run the other way. Potencies of inconclusive entries are left out as doubtful fits.
Potency means the concentration at half of the fitted maximal effect; tags describe the fitted curve by direction and shape.

Test: Primary qHTS for delayed death inhibitors of the malarial parasite plastid, 48 hour incubation
Settings: P. falciparum luciferase growth in erythrocytes; series mostly up to 28.7 µM
Outline: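 Cell-based growth assay: transgenic P. falciparum expressing firefly luciferase, cultured in red cells within RPMI 1640 containing 0.5% w/v Albumax, 24 mM bicarbonate and gentamycin. A drop in luciferase activity indicates inhibition.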
With `COc1cccc(NC(=O)CN2CCN(C(=O)c3ccco3)CC2)c1` the Potency was inconclusive [inhibitor, full curve, poor fit]. With `Cc1ccc2c(c1)N(C(=O)CSc1nncn1C)C(C)(C)c1ssc(=S)c1-2` the Potency was inconclusive [inhibitor, single point]. In the case of `COc1ccc(C(=O)NN(C)c2nc(C(F)(F)F)nc3ccccc23)cc1`, the Potency is reported as inconclusive [inhibitor, partial curve, poor fit]. In the case of `O=C(C1CC(=O)N(c2ccc(Br)cc2)C1)N1CCCC1` (configuration not stated), the Potency is reported as “inactive”. In the case of `CCOc1ccc(CN2CCN(Cc3[nH]c4ccc(OC)cc4c3C)CC2CCO)cc1` (configuration not stated), the Potency is reported as inconclusive [inhibitor, partial curve, poor fit]. For `O=[N+]([O-])c1ccc(/C=N/Nc2nc(N3CCCCC3)nc(N3CCCCC3)n2)cc1`, the Potency was inconclusive [inhibitor, full curve]. In the case of `c1ccc(SCCCCN2CCOCC2)cc1`, the Potency is reported as inconclusive [inhibitor, full curve, poor fit]. For `O=C(N/N=C/c1cccnc1)c1ccc(NC(=O)c2cccc(Cl)c2)cc1`, the Potency was inconclusive [inhibitor, partial curve, poor fit]. In the case of `Cc1cc([N+](=O)[O-])ccc1NC(=O)COc1nsnc1N1CCOCC1`, the Potency is reported as active: 1.85 µM. With `O=C(O)c1cn(-c2ccccc2)nc1-c1ccc(F)cc1` the Potency was “inactive”. In the case of `CCN1C(=O)C(CC(=O)Nc2ccc(F)cc2)N(Cc2ccc3c(c2)OCO3)C1=S` (configuration not stated), the Potency is reported as inconclusive [inhibitor, partial curve, poor fit]. For `C=CCn1c(O)c(N=NC(=O)OCC)c2ccccc21`, the Potency was “inactive”. In the case of `CCOc1ccc(-c2cc(C)[n+](CCN3CCOCC3)c(-c3ccc(OCC)cc3)c2)cc1`, the Potency is reported as active: 0.657 µM. With `COc1ccc(Cn2c(=O)oc3ccc(C)cc32)cc1` the Potency was “inactive”. With `O=C(c1ccc(Cn2cc(Cl)cn2)o1)N1CCN(Cc2ccc3c(c2)OCO3)CC1` the Potency was inconclusive [inhibitor, full curve, poor fit]. With `CC1(C)SC2c3ccccc3C(=O)N2[C@@H]1C(=O)NC1CCCC1` (some centres not stated) the Potency was inconclusive [inhibitor, partial curve, poor fit]. For `Cc1ccc(C)n1-c1ccsc1C(=O)CC#N`, the Potency was inconclusive [inhibitor, full curve, poor fit]. In the case of `CC(C)(C)c1ccc(Oc2ccc(NC(=O)c3ccccc3C(=O)O)cn2)cc1`, the Potency is reported as inconclusive [inhibitor, full curve, poor fit]. In the case of `COc1ccc(CCn2nc(C)c([N+](=O)[O-])c2C)cc1`, the Potency is reported as inconclusive [inhibitor, single point]. With `CCOc1ccc(CCNC(=O)c2ccc(S(=O)(=O)N3CCCC3)cc2)cc1OCC` the Potency was active: 11.7 µM. For `COc1ccc(S(=O)(=O)N2CCN(c3ccccc3OC)CC2)cc1C(=O)N1CCCCC1`, the Potency was “inactive”. In the case of `S=C(NCc1ccco1)N1CCN(Cc2ccc(Cl)cc2Cl)CC1`, the Potency is reported as inconclusive [inhibitor, single point]. In the case of `COc1ccc(C(F)(F)F)cc1N/C=C/c1nnnn1-c1ccc(C)cc1`, the Potency is reported as inconclusive [inhibitor, partial curve, poor fit]. In the case of `CCOc1ccc(Oc2c(C)oc3cc(O)ccc3c2=O)cc1`, the Potency is reported as “inactive”. For `CC(C)C12CN3CC(C(C)C)(CN(C1)C3c1cccnc1)C2=O` (configuration not stated), the Potency was inconclusive [inhibitor, single point]. For `CCOc1ccccc1NC(=O)CN1CCC(NC(=O)c2ccccc2C)CC1`, the Potency was inconclusive [inhibitor, partial curve]. With `Cc1c(C(=O)Nn2cnnc2)oc2ccccc12` the Potency was “inactive”. In the case of `CCOC(=O)c1ccc(NC(=O)COc2ccc(CNCCO)cc2OCC)cc1`, the Potency is reported as inconclusive [inhibitor, single point]. With `CCN(CC)S(=O)(=O)c1cccc(NC(=O)c2ccccc2Br)c1` the Potency was active: 10.4 µM. For `CCCN(CC(=O)Nc1cccc(Br)c1)CC(=O)Nc1ccc(F)c(F)c1F`, the Potency was inconclusive [inhibitor, single point]. With `O=C(NNC(=O)c1cnccn1)c1ccc(Cl)c(Cl)c1` the Potency was inconclusive [inhibitor, single point]. With `COc1ccc(CCNC(=O)CN2CCN(S(=O)(=O)c3ccc(Cl)cc3)CC2)cc1OC` the Potency was inconclusive [inhibitor, partial curve, poor fit]. With `CS(=O)(=O)N1CCN(c2ccccc2NC(=O)C(c2ccccc2)c2ccccc2)CC1` the Potency was active: 10.4 µM. With `CC(C)CN1C2CCCC1CC(NC(=S)NCc1ccco1)C2` (configuration not stated) the Potency was “inactive”. With `COC(=O)c1cc(-c2cc(OC)ccc2OC)nc2c1c(=O)n(C)c(=O)n2Cc1ccccc1` the Potency was inconclusive [inhibitor, single point]. With `O=C(O)c1ccc(CSc2nc3ccccc3c(=O)n2-c2ccccc2)cc1` the Potency was “inactive”. For `CC(N)CCCC(C)(C)O` (configuration not stated), the Potency was “inactive”. For `CCOc1ccc(C(=O)CCC(=O)N2CCC(C(=O)OC)CC2)cc1`, the Potency was inconclusive [inhibitor, partial curve, poor fit]. In the case of `O=C(Sc1cccc2cccnc12)c1ccccc1Br`, the Potency is reported as active: 1.31 µM. For `CCOc1ccc(CCNC(=O)c2nnc(Cc3ccc(F)cc3)o2)cc1OCC`, the Potency was inconclusive [inhibitor, single point]. For `Brc1ccc(CNc2nc3ccccc3n2CCN2CCCCC2)cc1`, the Potency was inconclusive [inhibitor, single point]. For `COc1cccc(CC(=O)N[C@@H](CCSC)c2nc3ccccc3[nH]2)c1`, the Potency was inconclusive [inhibitor, partial curve, poor fit]. For `COCCn1c(C)cc(C(=O)COC(=O)CNC(=O)c2ccco2)c1C`, the Potency was “inactive”. With `O=C(CSc1nnc(-c2ccco2)o1)N1c2ccccc2CCc2ccccc21` the Potency was inconclusive [inhibitor, single point]. In the case of `CCN(CC)C(C)C#CCC(c1ccccc1)c1ccccc1` (configuration not stated), the Potency is reported as inconclusive [inhibitor, single point]. With `O=C(N(c1ccccc1)c1ccccc1)N(c1ccccc1)c1ccccc1` the Potency was inconclusive [inhibitor, single point]. For `Oc1ccccc1/C=N/NP(=S)(c1ccccc1)c1ccccc1`, the Potency was inconclusive [inhibitor, single point]. With `O=C(OCC#CCSc1nnc(-c2cccc3ccccc23)o1)c1cnc[nH]1` the Potency was inconclusive [inhibitor, single point]. For `COc1ccc(Sc2nc(-c3ccccn3)ncc2OC)cc1`, the Potency was active: 3.29 µM. In the case of `CC(=O)c1c(C)[nH]c(C(=O)Nc2cccc(S(=O)(=O)N3CCCCC3)c2)c1C`, the Potency is reported as active: 9.28 µM. With `COC(=O)NCC12CC3CC(C1)CC(CNC(=O)OC)(C3)C2` the Potency was inconclusive [inhibitor, single point]. For `CCOC(=O)CN(C(=O)Cn1nnc(-c2ccc(C)cc2)n1)C(CC)C(=O)NC1CCCC1` (configuration not stated), the Potency was inconclusive [inhibitor, single point]. In the case of `O=C(CCCn1c(=O)[nH]c2ccsc2c1=O)N1CCN(Cc2ccc3c(c2)OCO3)CC1`, the Potency is reported as inconclusive [inhibitor, single point]. In the case of `CCOc1ccc(S(=O)(=O)Nc2ccccc2SC)cc1`, the Potency is reported as inconclusive [inhibitor, partial curve, poor fit]. For `CCCOc1ccc(C(=O)NNC(=S)NC(=O)c2cc(-c3ccc(Cl)cc3)nc3ccccc23)cc1`, the Potency was inconclusive [inhibitor, single point]. For `COc1cccc(NC(=O)c2ccc3c(c2)OCO3)c1`, the Potency was “inactive”. With `O=C(N/N=C/c1cn(-c2ccccc2)nc1-c1cc2ccccc2o1)c1cccnc1` the Potency was inconclusive [inhibitor, single point]. With `Cc1ccc2nc(Nc3ccc(C)c(C)c3)c3nncn3c2c1` the Potency was inconclusive [inhibitor, single point]. In the case of `COC(=O)CN1C(=O)C2(C(C#N)=C(N)Oc3cc(C)oc(=O)c32)c2ccccc21` (configuration not stated), the Potency is reported as inconclusive [inhibitor, full curve, poor fit]. For `O=S(=O)(Nc1nc(-c2ccccc2)cs1)c1cccc(C(F)(F)F)c1`, the Potency was “inactive”. For `Cc1cc(CNC(=O)COc2ccc(F)cc2Cl)cc(C)c1O`, the Potency was “inactive”. With `CSc1nnc(-c2ccco2)c(-c2ccco2)n1` the Potency was “inactive”. In the case of `O=[N+]([O-])c1ccc(C2CCCC/C2=N/OCc2ccc(F)cc2)c([N+](=O)[O-])c1` (configuration not stated), the Potency is reported as active: 11.7 µM. For `CCc1cc(C(=O)OC)c(NC(=O)CCCC(=O)O)s1`, the Potency was “inactive”. In the case of `CN(C)c1ccc(Nc2ncnc3ccc(Br)cc23)cc1`, the Potency is reported as “inactive”. With `Cc1cccc(C)c1NC(=O)CN(C)C(=O)c1ccccc1OCc1ccc(F)cc1` the Potency was inconclusive [inhibitor, single point]. In the case of `c1cc(-c2noc(CCC3CCCC3)n2)ccn1`, the Potency is reported as inconclusive [inhibitor, single point]. With `Cc1nc2cc(Nc3nnc(-c4ccccc4)c4ccccc34)ccc2n1C` the Potency was “inactive”. In the case of `COc1cc(/C=N/NC(=O)c2cccnc2)ccc1OS(=O)(=O)c1ccc(C)cc1`, the Potency is reported as “inactive”. With `Cc1ccc(S(=O)(=O)NCC(=O)OCc2nnc(-c3ccccc3)o2)cc1` the Potency was “inactive”. For `Oc1c(Br)cc(/C=N/Nc2ccc(Cl)nn2)cc1Br`, the Potency was active: 0.522 µM. For `CCc1ccc(NC(=O)C2CCN(S(=O)(=O)c3ccc4c(c3)NC(=O)CO4)CC2)cc1`, the Potency was inconclusive [inhibitor, partial curve].
